{"source": "paper PMC12820563", "note": "The list shows a part of the results. The list includes weakly bound sequences."}
{"target": "T1, MBP-FoxP3dN (UniProt Q99JB6)", "T1 sequence": "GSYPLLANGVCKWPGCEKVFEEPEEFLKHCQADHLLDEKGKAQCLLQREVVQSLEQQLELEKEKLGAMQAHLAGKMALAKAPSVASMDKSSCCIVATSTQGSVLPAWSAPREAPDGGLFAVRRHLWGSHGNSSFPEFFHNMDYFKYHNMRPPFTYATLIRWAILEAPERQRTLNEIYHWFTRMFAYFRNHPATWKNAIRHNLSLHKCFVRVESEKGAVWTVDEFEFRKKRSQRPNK", "assay": "PD-seq (MBP pull-down with sequencing)", "conditions": "20 mM Tris-HCl pH 7.5, 100 mM NaCl, 1.5 mM MgCl2, 0.4 uM protein, 0.1 uM dsDNA library, 30 min, room temperature, amylose pull-down; high values mean tight binding; double strand, one strand shown"}
{"sequence": "GATGATTGTTCTCCCAGCTGATGAATTATGAACCTCGAGTAAACAAATTTTCCTAATCTTTCTGTTCAAGCGCCATCTAC", "binding signal (RPM ratio (pull-down/input))": 0.381}
{"sequence": "GATGATTGTTCTCCCAGCTGATGAATTAGGGTTGTCGAGTAAACAAATTTTCCTAATCTTTCTGTTCAAGCGCCATCTAC", "binding signal (RPM ratio (pull-down/input))": 1.08}
{"sequence": "GATGATTGTTCTCCCAGCTGATGAATTCAATCGTTCGAGTAAACAAATTTTCCTAATCTTTCTGTTCAAGCGCCATCTAC", "binding signal (RPM ratio (pull-down/input))": 0.554}
{"sequence": "GATGATTGTTCTCCCAGCTGATGAATTATCTAGTTCGAGTAAACAAATTTTCCTAATCTTTCTGTTCAAGCGCCATCTAC", "binding signal (RPM ratio (pull-down/input))": 0.333}
{"sequence": "GATGATTGTTCTCCCAGCTGATGAATTTACTCAGTCGAGTAAACAAATTTTCCTAATCTTTCTGTTCAAGCGCCATCTAC", "binding signal (RPM ratio (pull-down/input))": 0.286}
{"sequence": "GATGATTGTTCTCCCAGCTGATGAATTTCATATTTCGAGTAAACAAATTTTCCTAATCTTTCTGTTCAAGCGCCATCTAC", "binding signal (RPM ratio (pull-down/input))": 0.658}
{"sequence": "GATGATTGTTCTCCCAGCTGATGAATTGCAATCCTCGAGTAAACAAATTTTCCTAATCTTTCTGTTCAAGCGCCATCTAC", "binding signal (RPM ratio (pull-down/input))": 1.41}
{"sequence": "GATGATTGTTCTCCCAGCTGATGAATTAACATTCTCGAGTAAACAAATTTTCCTAATCTTTCTGTTCAAGCGCCATCTAC", "binding signal (RPM ratio (pull-down/input))": 0.489}
{"sequence": "GATGATTGTTCTCCCAGCTGATGAATTGCGCGCTTCGAGTAAACAAATTTTCCTAATCTTTCTGTTCAAGCGCCATCTAC", "binding signal (RPM ratio (pull-down/input))": 1.58}
{"sequence": "GATGATTGTTCTCCCAGCTGATGAATTCTCAGCATCGAGTAAACAAATTTTCCTAATCTTTCTGTTCAAGCGCCATCTAC", "binding signal (RPM ratio (pull-down/input))": 0.635}
{"sequence": "GATGATTGTTCTCCCAGCTGATGAATTGTAAAATTCGAGTAAACAAATTTTCCTAATCTTTCTGTTCAAGCGCCATCTAC", "binding signal (RPM ratio (pull-down/input))": 0.231}
{"sequence": "GATGATTGTTCTCCCAGCTGATGAATTAAGAAGATCGAGTAAACAAATTTTCCTAATCTTTCTGTTCAAGCGCCATCTAC", "binding signal (RPM ratio (pull-down/input))": 0.196}
{"sequence": "GATGATTGTTCTCCCAGCTGATGAATTTGCAGCCTCGAGTAAACAAATTTTCCTAATCTTTCTGTTCAAGCGCCATCTAC", "binding signal (RPM ratio (pull-down/input))": 1.27}
{"sequence": "GATGATTGTTCTCCCAGCTGATGAATTATAGATCTCGAGTAAACAAATTTTCCTAATCTTTCTGTTCAAGCGCCATCTAC", "binding signal (RPM ratio (pull-down/input))": 0.352}
{"sequence": "GATGATTGTTCTCCCAGCTGATGAATTGAAGGTTTCGAGTAAACAAATTTTCCTAATCTTTCTGTTCAAGCGCCATCTAC", "binding signal (RPM ratio (pull-down/input))": 0.397}
{"sequence": "GATGATTGTTCTCCCAGCTGATGAATTATAATACTCGAGTAAACAAATTTTCCTAATCTTTCTGTTCAAGCGCCATCTAC", "binding signal (RPM ratio (pull-down/input))": 0.58}
{"sequence": "GATGATTGTTCTCCCAGCTGATGAATTCCGGGTCTCGAGTAAACAAATTTTCCTAATCTTTCTGTTCAAGCGCCATCTAC", "binding signal (RPM ratio (pull-down/input))": 0.568}
{"sequence": "GATGATTGTTCTCCCAGCTGATGAATTCAGCTCATCGAGTAAACAAATTTTCCTAATCTTTCTGTTCAAGCGCCATCTAC", "binding signal (RPM ratio (pull-down/input))": 0.381}
{"sequence": "GATGATTGTTCTCCCAGCTGATGAATTGTGGCTCTCGAGTAAACAAATTTTCCTAATCTTTCTGTTCAAGCGCCATCTAC", "binding signal (RPM ratio (pull-down/input))": 1.32}
{"sequence": "GATGATTGTTCTCCCAGCTGATGAATTGCGAGCTTCGAGTAAACAAATTTTCCTAATCTTTCTGTTCAAGCGCCATCTAC", "binding signal (RPM ratio (pull-down/input))": 0.653}
{"sequence": "GATGATTGTTCTCCCAGCTGATGAATTTGAAAAGTCGAGTAAACAAATTTTCCTAATCTTTCTGTTCAAGCGCCATCTAC", "binding signal (RPM ratio (pull-down/input))": 0.145}
{"sequence": "GATGATTGTTCTCCCAGCTGATGAATTTCCCTCCTCGAGTAAACAAATTTTCCTAATCTTTCTGTTCAAGCGCCATCTAC", "binding signal (RPM ratio (pull-down/input))": 0.247}
{"sequence": "GATGATTGTTCTCCCAGCTGATGAATTTCATTCATCGAGTAAACAAATTTTCCTAATCTTTCTGTTCAAGCGCCATCTAC", "binding signal (RPM ratio (pull-down/input))": 0.531}
{"sequence": "GATGATTGTTCTCCCAGCTGATGAATTATCCGGTTCGAGTAAACAAATTTTCCTAATCTTTCTGTTCAAGCGCCATCTAC", "binding signal (RPM ratio (pull-down/input))": 0.237}
{"sequence": "GATGATTGTTCTCCCAGCTGATGAATTCCAGTAATCGAGTAAACAAATTTTCCTAATCTTTCTGTTCAAGCGCCATCTAC", "binding signal (RPM ratio (pull-down/input))": 0.477}
{"sequence": "GATGATTGTTCTCCCAGCTGATGAATTGTTCCTCTCGAGTAAACAAATTTTCCTAATCTTTCTGTTCAAGCGCCATCTAC", "binding signal (RPM ratio (pull-down/input))": 0.416}
{"sequence": "GATGATTGTTCTCCCAGCTGATGAATTAGCCATCTCGAGTAAACAAATTTTCCTAATCTTTCTGTTCAAGCGCCATCTAC", "binding signal (RPM ratio (pull-down/input))": 0.956}
{"sequence": "GATGATTGTTCTCCCAGCTGATGAATTTCATGCTTCGAGTAAACAAATTTTCCTAATCTTTCTGTTCAAGCGCCATCTAC", "binding signal (RPM ratio (pull-down/input))": 0.528}
{"sequence": "GATGATTGTTCTCCCAGCTGATGAATTCTGTCCGTCGAGTAAACAAATTTTCCTAATCTTTCTGTTCAAGCGCCATCTAC", "binding signal (RPM ratio (pull-down/input))": 0.458}
{"sequence": "GATGATTGTTCTCCCAGCTGATGAATTCAGACACTCGAGTAAACAAATTTTCCTAATCTTTCTGTTCAAGCGCCATCTAC", "binding signal (RPM ratio (pull-down/input))": 1.16}
{"sequence": "GATGATTGTTCTCCCAGCTGATGAATTGTAATTGTCGAGTAAACAAATTTTCCTAATCTTTCTGTTCAAGCGCCATCTAC", "binding signal (RPM ratio (pull-down/input))": 2.31}
{"sequence": "GATGATTGTTCTCCCAGCTGATGAATTGGGAGCGTCGAGTAAACAAATTTTCCTAATCTTTCTGTTCAAGCGCCATCTAC", "binding signal (RPM ratio (pull-down/input))": 0.449}
{"sequence": "GATGATTGTTCTCCCAGCTGATGAATTCAGAGATTCGAGTAAACAAATTTTCCTAATCTTTCTGTTCAAGCGCCATCTAC", "binding signal (RPM ratio (pull-down/input))": 0.313}
{"sequence": "GATGATTGTTCTCCCAGCTGATGAATTGACGCGCTCGAGTAAACAAATTTTCCTAATCTTTCTGTTCAAGCGCCATCTAC", "binding signal (RPM ratio (pull-down/input))": 0.836}
{"sequence": "GATGATTGTTCTCCCAGCTGATGAATTATAAACATCGAGTAAACAAATTTTCCTAATCTTTCTGTTCAAGCGCCATCTAC", "binding signal (RPM ratio (pull-down/input))": 2.69}
{"sequence": "GATGATTGTTCTCCCAGCTGATGAATTGTTGGCCTCGAGTAAACAAATTTTCCTAATCTTTCTGTTCAAGCGCCATCTAC", "binding signal (RPM ratio (pull-down/input))": 2.11}
{"sequence": "GATGATTGTTCTCCCAGCTGATGAATTTTCCTCATCGAGTAAACAAATTTTCCTAATCTTTCTGTTCAAGCGCCATCTAC", "binding signal (RPM ratio (pull-down/input))": 0.224}
{"sequence": "GATGATTGTTCTCCCAGCTGATGAATTGGAAACCTCGAGTAAACAAATTTTCCTAATCTTTCTGTTCAAGCGCCATCTAC", "binding signal (RPM ratio (pull-down/input))": 0.23}
{"sequence": "GATGATTGTTCTCCCAGCTGATGAATTGCAATCGTCGAGTAAACAAATTTTCCTAATCTTTCTGTTCAAGCGCCATCTAC", "binding signal (RPM ratio (pull-down/input))": 1.72}
{"sequence": "GATGATTGTTCTCCCAGCTGATGAATTACATAATTCGAGTAAACAAATTTTCCTAATCTTTCTGTTCAAGCGCCATCTAC", "binding signal (RPM ratio (pull-down/input))": 0.49}
